Measurements published in PubChem BioAssay AID1458 (National Center for Advancing Translational Sciences (NCATS), 2008).
Among all 210,000 compounds or so, about 5,900 (2.8%) were called active. This list was built around the results that the source calls inconclusive (neither active nor inactive); the mix of calls is not that of the screen. Calls come from the whole dose curve; as a rule, active = well fitted activation curve with a large enough effect; inconclusive = small, poorly fitted or top-dose-only effect; inactive = no such curve, though single readings can be large or run the other way. A potency beside an inconclusive call is a rough fit, not a confirmed value.

assay: qHTS Assay for Enhancers of SMN2 Splice Variant Expression; conditions: HEK293 SMN2-luciferase splicing reporter, luminescence, 30-36 h; activity change, positive = activation: at 46.1 µM (top of the series); note: nearly all actives have a fitted effect of over 55% in size; for activity change, positive = activation: % of control where 0% means no effect
In short: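 HEK293 cells carry an SMN2 […]–luciferase reporter in which exon 7 inclusion puts luciferase in frame. Cells were plated 10-12 h before compound addition, then incubated 30-36 h at 37C. ONE-Glo luminescence was read; sodium butyrate at 4.5 mM final served as control.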
Potency is the fitted concentration of half-maximal effect; tags give direction and shape of the fitted curve.

Row | SMILES | Potency | activity change, positive = activation
1 | COC(=O)c1ccc(N2C(=O)CC(NCc3ccccc3)C2=O)cc1 (stereo not drawn) | inconclusive: 5.62 µM [activator, partial curve, poor fit] | –
2 | Cc1cccc(-c2nnc(SCc3ccccc3)o2)c1 | inconclusive: 35.5 µM [activator, single point] | –
3 | O=C(O)CCCC(=O)NCCc1cccc(Cl)c1 | inconclusive: 25.1 µM [activator, partial curve, poor fit] | –
4 | Cc1ccccc1C(=O)NNC(=O)/C=C/c1ccccc1 | inactive | –
5 | CCc1ccc(C(=O)N/N=C/c2cccc3ccccc23)nc1 | inconclusive: 31.6 µM [activator, single point] | –
6 | COc1ccc2nc(SCC(=O)c3ccco3)[nH]c2c1 | inconclusive: 17.8 µM [activator, partial curve, poor fit] | –
7 | N#Cc1cccc(NCC(=O)Nc2ccc3c(c2)OCCO3)c1 | active: 12.6 µM | –
8 | Brc1ccc(-c2nc(-c3ccncc3)no2)o1 | inconclusive: 11.2 µM [activator, partial curve, poor fit] | –
9 | CCC(C)NC(=O)COc1ccc(OCc2ccccc2)cc1 (stereo not drawn) | inactive | –
10 | COc1ccccc1C(=O)NCC(=O)N/N=C/c1cc(Br)ccc1OCc1ccccc1 | inactive | –
11 | O=[N+]([O-])c1ccc(C2Oc3ccccc3C3CC(c4ccccc4)=NN32)s1 (stereo not drawn) | active: 25.1 µM | –
12 | O=[N+]([O-])c1ccc(O)c(/C=N/NC2=NS(=O)(=O)c3ccccc32)c1 | inactive | –
13 | CNc1nc2c(c(=O)n(C)c(=O)n2C)n1CC(O)COc1ccc(OC)cc1 (stereo not drawn) | inactive | –
14 | CCN(Cc1ccccc1)C(=O)Cn1c(=O)n(-c2cccc(C)c2)c(=O)c2c1c1cc(OC)ccc1n2C | inactive | –
15 | COc1ccc(NC(=O)C2CCN(S(C)(=O)=O)CC2)cc1Cl | inconclusive: 1.78 µM [activator, partial curve] | –
16 | Cc1ccc(CCSCC(=O)O)cn1 | inconclusive: 3.98 µM [activator, full curve, poor fit] | –
17 | Cc1ccc(C(=O)NCc2ccccc2)cc1Br | inactive | –
18 | C=CCN(c1ccccc1OC)S(=O)(=O)c1cccc(C(=O)OCC(=O)c2c[nH]c3ccccc23)c1 | inactive | –
19 | Cc1cccc(NC(=S)NCc2ccc3[nH]c4c(c3c2)CCCC4)c1 | inconclusive: 14.1 µM [activator, single point] | –
20 | CN(Cc1ccccc1)C(=O)CSc1nc(-c2ccc(F)cc2)cc(C(F)(F)F)n1 | inactive | –
21 | Cc1ccc(NC(=O)/C(Cl)=C\c2ccccc2)cc1 | inactive | –
22 | C=CCOC(=O)c1c(C)nc2cc3c(cc2c1C)OCO3 | inconclusive: 0.0447 µM [activator, full curve, poor fit] | –
23 | COCCSc1nnc(NS(=O)(=O)Cc2ccccc2)s1 | inconclusive: 7.08 µM [activator, full curve, poor fit] | –
24 | COc1cc(/C=C2/C(C)=C(C#N)c3nc(N)c(C#N)c(C)c32)ccc1OCC(=O)O | inconclusive: 4.47 µM [activator, single point] | –
25 | CCOC(=O)C1CCCN(c2c(NCC3CCCO3)c(=O)c2=O)C1 (stereo not drawn) | inconclusive: 3.98 µM [activator, single point] | –
26 | COc1cccc(N2CC(O)=C(c3nc4ccccc4s3)C2=N)c1 | inconclusive: 25.1 µM [activator, single point] | –

Row | SMILES | Potency | activity change, positive = activation
27 | CS(=O)(=O)N1CCc2cc(-c3csc(NC(=O)Cc4ccccc4)n3)ccc21 | inactive | –
28 | O=C(O)c1cc(-c2ccc3cc4c(cc3c2)OCO4)nc2ccccc12 | active: 3.55 µM | –
29 | COc1ccc(S(=O)(=O)N(C)CC(=O)N2CCC(C(N)=O)CC2)cc1 | inconclusive: 0.0016 µM [activator, full curve, poor fit] | –
30 | O=C(NNC(=S)Nc1ccc(Cl)cc1)c1ccccc1OC(F)F | inactive | –
31 | CCOc1ccc(NC(=O)c2cnsn2)cc1 | inconclusive: 17.8 µM [activator, single point] | –
32 | COc1ccc(/C=N/NC(=O)c2ccoc2C)cc1O | inconclusive: 20 µM [activator, single point] | –
33 | CC(NCc1ccc(F)cc1)C(=O)Nc1cc(S(=O)(=O)N2CCCCC2)ccc1Cl (stereo not drawn) | inactive | –
34 | O=C(CSc1ccccn1)N1CCc2ccccc21 | active: 11.2 µM | –
35 | O=C(COc1ccc(Cl)cc1Cl)Nc1cccc2cccnc12 | inactive | –
36 | COc1cccc(NC(=O)C(=O)N2CCOCC2)c1 | active: 12.6 µM | –
37 | O=C(Cc1cccs1)N/N=C/C(Br)=C/c1ccccc1 | inconclusive: 20 µM [activator, partial curve, poor fit] | –
38 | CC(C)Oc1ccc(C(CC(=O)O)NC(=O)CSc2ncn[nH]2)cc1 (stereo not drawn) | inconclusive: 25.1 µM [activator, single point] | –
39 | COc1ccc(-c2cc(C(=O)N3CCN(c4ccccc4)CC3)no2)cc1 | inconclusive: 35.5 µM [activator, single point] | –
40 | O=C(NCCc1ccc(Cl)cc1)c1ccc2c(c1)N(Cc1ccc(Cl)cc1)C(=O)CS2 | inactive | –
41 | O=[N+]([O-])c1ccc(Sc2cccc3cccnc23)cc1 | inconclusive: 0.0708 µM [activator, partial curve] | –
42 | O=C(CCCCCn1c(=O)c2sccc2n(Cc2ccc(Cl)cc2)c1=O)NCc1ccc2c(c1)OCO2 | inactive | –
43 | O=C(Cc1ccccc1[N+](=O)[O-])Nc1ccc2c(c1)OCCO2 | inconclusive: 35.5 µM [activator, single point] | –
44 | CC(C)OCCCNC(=O)C(=O)NCCCOC(C)C | inactive | –
45 | CC(=O)c1c(C)[nH]c(C(=O)CSc2nnc3ccccn23)c1C | inconclusive: 11.2 µM [activator, partial curve, poor fit] | –
46 | COC(=O)c1nnn(CC(=O)Nc2ccc(Br)c(C)c2)c1N | inactive | –
47 | CCc1nnc(NC(=O)CSc2ccc(-c3ccc(C)cc3)nn2)s1 | inconclusive: 10 µM [activator, partial curve, poor fit] | –
48 | CNC(=S)N(CCc1cccc(C)c1)Cc1cc2cc(OC)c(OC)cc2[nH]c1=O | – | inactive: -18.4% [at 1.84 µM]
49 | O=C(COC(=O)CCc1ccc(S(=O)(=O)N2CCOCC2)cc1)NCc1ccc(Cl)cc1 | inactive | –
50 | CC1(C)Cc2nc3nc(SCC(=O)Nc4ccccc4)nc(N)c3cc2CO1 | inconclusive: 22.4 µM [activator, single point] | –
51 | CCn1c(C)cc(/C=C2/NC(=O)N(c3ccccc3)C2=O)c1C | active: 11.2 µM | –
52 | Cc1cc(NC(=O)Cn2nc(C(F)(F)F)c3c2CCCC3)no1 | active: 14.1 µM | –

Row | SMILES | Potency | activity change, positive = activation
53 | Cc1nn(-c2ccccc2)c2c1C(c1ccco1)C(C#N)=C(N)O2 (stereo not drawn) | inactive | –
54 | Cc1ccc(C)c(NC(=O)C(Sc2cccc[n+]2[O-])c2ccccc2)c1 (stereo not drawn) | inactive | –
55 | COc1ccccc1OCc1ccc(C(=O)NCc2cccnc2)o1 | inactive | –
56 | CCc1ccc(N=C2N=C(N)c3ccccc32)cc1 | inconclusive: 31.6 µM [activator, single point] | –
57 | COc1ccc(NS(=O)(=O)c2cccc3nonc23)c(OC)c1 | inconclusive: 35.5 µM [activator, single point] | –
58 | O=C1/C(=C/c2ccccc2)Oc2cc(OC(=O)N3CCOCC3)ccc21 | inconclusive: 14.1 µM [activator, single point] | –
59 | c1ccc(CN2CCN(c3nc(-c4ccccn4)nc4ccccc34)CC2)cc1 | inactive | –
60 | CCN1C(=O)/C(=C2/Sc3ccccc3N2CC)S/C1=N\c1ncn[nH]1 | inactive | –
61 | CN(C(=O)CSc1nnc(NC2CCCCC2)s1)C1CCS(=O)(=O)C1 (stereo not drawn) | inactive | –
62 | O=C(O)CSc1nnc(-c2cccs2)n1-c1ccc(Cl)cc1 | inconclusive: 0.794 µM [activator, full curve, poor fit] | –
63 | CNC(=O)Nc1ccccc1NC(=O)NC | inconclusive: 7.08 µM [activator, full curve] | –
64 | CCc1ccc(NC(=O)CC2NCCNC2=O)cc1 (stereo not drawn) | inconclusive: 0.891 µM [activator, full curve] | –
65 | Cc1ccc(COc2ccc(/C=N/NC(=O)CN3CCCCC3)cc2)cc1 | inconclusive: 22.4 µM [activator, single point] | –
66 | O=C(NCCc1nc2ccccc2[nH]1)Nc1ccccc1 | inactive | –
67 | CCc1ccc(NC(=S)N(Cc2ccccc2)Cc2ccccn2)cc1 | inconclusive: 25.1 µM [activator, single point] | –
68 | O=C(CSCc1ccco1)NC1CCCC1 | inconclusive: 8.91 µM [activator, partial curve] | –
69 | CN1CCN(c2ccc(-c3ccnn3C(=O)Nc3cccc(C(F)(F)F)c3)cc2)CC1 | active: 12.6 µM | –
70 | O=C(NC1CCS(=O)(=O)C1)c1c(NC(=O)C2COc3ccccc3O2)sc2c1CCCC2 (stereo not drawn) | inconclusive: 35.5 µM [activator, single point] | –
71 | N#C/C(=C(/O)COc1ccccc1)c1nnc2n1CCCCC2 | inconclusive: 35.5 µM [activator, single point] | –
72 | Cc1cccc(C)c1OCC(=O)NCc1nnc(SCC(=O)NC2CCCCC2C)n1C (stereo not drawn) | active: 22.4 µM | –
73 | Cc1c(O)ccc(C(=O)COc2ccccc2F)c1O | inactive | –
74 | CCc1ccccc1NC(=O)CSc1nc2ccccc2n1CC(=O)N1CCCC1 | inconclusive: 0.0178 µM [activator, full curve, poor fit] | –
75 | NC1(C(=O)O)C[C@H](C(=O)O)[C@H](C(=O)O)C1 (stereo partly drawn) | inactive | –
76 | O=C(Nc1ccc(Cl)c(Cl)c1)Nc1ccccc1C(=O)O | active: 4.47 µM | –
77 | Cc1ccc(C(=O)N(C)c2ccc(OCC(=O)N3c4ccc(C)cc4C4CN(C)CCC43)cc2)cc1 (stereo not drawn) | active: 11.2 µM | –
78 | O=C1NC(=Nc2ccccc2)c2ccc([N+](=O)[O-])cc21 | inconclusive: 2.51 µM [activator, single point] | –
